In PMC5892938:
This is one part of the list. At the low end of the ranking the order means little.
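Also: DESeq read counts versus GST-SBP nonspecific binding control pulldown.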

The sequences below were run against GST-SBP-SLBP (stem-loop binding protein) (UniProt Q14493) (assay: targeted RNA Bind-n-Seq). Conditions: RBNS binding buffer: 25 mM Tris pH 7.5, 150 mM KCl, 3 mM MgCl2, 0.1% Tween, 0.5 mg/mL BSA, 1 mM DTT; 27 nM protein, 750 pM RNA pool; temperature not stated; high values mean tight binding.
“GGUCACGUCUCAAUCAACUCCCAAGAGGGGGGGAAAACCCCUUUGCCCUCACUUUCAACAGCUCGCAGUCAAG” gave a binding signal (log2 fold change) of -0.405. “GGUCACGUCUCAAUCAACUCAGUUUCAGGAGUUUCCUCCUGUAUUUUCAACAGCUCGCAGUCAAG” gave a binding signal (log2 fold change) of -0.116. “GGUCACGUCUCAAUCAACUCUUCUUCCAGGGAAAGCCCUGGCAUACUCAACAGCUCGCAGUCAAG” showed a binding signal (log2 fold change) of 0.0417. With “GGUCACGUCUCAAUCAACUCUCUAGAGGGGGGGAAAACCCCUUUGCCCUCAAACUCAACAGCUCGCAGUCAAG” the binding signal (log2 fold change) was -0.338. “GGUCACGUCUCAAUCAACUCCUUAGAGGGGGGGAAAACCCCUUUACCCUCAUUAUCAACAGCUCGCAGUCAAG” was tested, and the binding signal (log2 fold change) was -0.00522. Sequence “GGUCACGUCUCAAUCAACUCUUAAGAGGGGGGGAAAACCCCUUUACCCUCGUAUUCAACAGCUCGCAGUCAAG” has a binding signal (log2 fold change) of -0.00706. “GGUCACGUCUCAAUCAACUCAACAGAGGGGGGGAAAACCCCUUUACCCUCAACAUCAACAGCUCGCAGUCAAG” was tested, and the binding signal (log2 fold change) was -0.407. “GGUCACGUCUCAAUCAACUCUACUUCCAGGGAAAGCCCUGGUUAACUCAACAGCUCGCAGUCAAG” was tested, and the binding signal (log2 fold change) was 0.0162. For “GGUCACGUCUCAAUCAACUCAAUCUCAGGAGUUUGCUCCUGCUAUCUCAACAGCUCGCAGUCAAG”, the binding signal (log2 fold change) was 0.192. In the case of “GGUCACGUCUCAAUCAACUCAAUCUCAGGAGUUUUCUCCUGUUAUCUCAACAGCUCGCAGUCAAG”, the binding signal (log2 fold change) is reported as 0.0472. “GGUCACGUCUCAAUCAACUCUUUUUCCAGGGAAACCCCUGGUUUAUUCAACAGCUCGCAGUCAAG” showed a binding signal (log2 fold change) of -0.105. “GGUCACGUCUCAAUCAACUCCUUAGAGGGGGGGAAAACCCCUUUGCCCUCCAAAUCAACAGCUCGCAGUCAAG” gave a binding signal (log2 fold change) of -0.0252. For “GGUCACGUCUCAAUCAACUCAAUCCCCAGGGAAAACCCUGGCAUACUCAACAGCUCGCAGUCAAG”, the binding signal (log2 fold change) was 0.351. With “GGUCACGUCUCAAUCAACUCAACUUCCAGGGAAAGCCCUGGCUUUUUCAACAGCUCGCAGUCAAG” the binding signal (log2 fold change) was 0.142. In the case of “GGUCACGUCUCAAUCAACUCAAUCUCAGGAGUUUACUCCUGCUUUUUCAACAGCUCGCAGUCAAG”, the binding signal (log2 fold change) is reported as -0.242. “GGUCACGUCUCAAUCAACUCUUCUUCCAGGGAAACCCCUGGCAAACUCAACAGCUCGCAGUCAAG” was tested, and the binding signal (log2 fold change) was 0.0286. Work on “GGUCACGUCUCAAUCAACUCAGUCUCCAGGGAAAGCCCUGGCUAAUUCAACAGCUCGCAGUCAAG” yielded a binding signal (log2 fold change) of -0.355. Work on “GGUCACGUCUCAAUCAACUCCAAAGAGGGGGGGAAAACCCCUUUACCCUCCGUUUCAACAGCUCGCAGUCAAG” yielded a binding signal (log2 fold change) of 0.395. Work on “GGUCACGUCUCAAUCAACUCAAAAGAGGGGGGGAAAACCCCUUUACCCUCAUCGUCAACAGCUCGCAGUCAAG” yielded a binding signal (log2 fold change) of -0.161. With “GGUCACGUCUCAAUCAACUCAUUCCCAGGAGUUUCCUCCUGUUAUCUCAACAGCUCGCAGUCAAG” the binding signal (log2 fold change) was 0.136. For “GGUCACGUCUCAAUCAACUCAACAGAGGGGGGGAAAACCCCUUUGCCCUCCAUAUCAACAGCUCGCAGUCAAG”, the binding signal (log2 fold change) was -0.0653. With “GGUCACGUCUCAAUCAACUCCCUAGAGGGGGGGAAAACCCCUUUGCCCUCAUUAUCAACAGCUCGCAGUCAAG” the binding signal (log2 fold change) was -0.0293. Work on “GGUCACGUCUCAAUCAACUCUUCUUCCAGGGAAAACCCUGGCUAUCUCAACAGCUCGCAGUCAAG” yielded a binding signal (log2 fold change) of 0.132. With “GGUCACGUCUCAAUCAACUCUUCUUCCAGGGAAACCCCUGGUAUUUUCAACAGCUCGCAGUCAAG” the binding signal (log2 fold change) was -0.245. For “GGUCACGUCUCAAUCAACUCAGUCUCAGGAGUUUUCUCCUGCUUUUUCAACAGCUCGCAGUCAAG”, the binding signal (log2 fold change) was 0.0224. In the case of “GGUCACGUCUCAAUCAACUCAACUCCCAGGGAAAUCCCUGGCUAUCUCAACAGCUCGCAGUCAAG”, the binding signal (log2 fold change) is reported as -0.215. Sequence “GGUCACGUCUCAAUCAACUCAUCUUCCAGGGAAAACCCUGGCUUUCUCAACAGCUCGCAGUCAAG” has a binding signal (log2 fold change) of 0.29. With “GGUCACGUCUCAAUCAACUCACUCGAGGGGGGGAAAACCCCUUUACCCUCAUCCUCAACAGCUCGCAGUCAAG” the binding signal (log2 fold change) was 0.0215. “GGUCACGUCUCAAUCAACUCAUUUUCCAGGGAAACCCCUGGCAUUCUCAACAGCUCGCAGUCAAG” was tested, and the binding signal (log2 fold change) was -0.189. “GGUCACGUCUCAAUCAACUCUUUUCCAGGAGUUUCCUCCUGCUUUUUCAACAGCUCGCAGUCAAG” showed a binding signal (log2 fold change) of -0.165. With “GGUCACGUCUCAAUCAACUCUAUCUCCAGGGAAAACCCUGGCAUAUUCAACAGCUCGCAGUCAAG” the binding signal (log2 fold change) was -0.0315. For “GGUCACGUCUCAAUCAACUCAAUUUCAGGAGUUUGCUCCUGUUUUCUCAACAGCUCGCAGUCAAG”, the binding signal (log2 fold change) was -0.0879. In the case of “GGUCACGUCUCAAUCAACUCAAUCGCAGGAGUUUCCUCCUGGUAAUUCAACAGCUCGCAGUCAAG”, the binding signal (log2 fold change) is reported as -0.00627. “GGUCACGUCUCAAUCAACUCUUCCCCCAGGGAAAACCCUGGUUUUCUCAACAGCUCGCAGUCAAG” gave a binding signal (log2 fold change) of -0.058. “GGUCACGUCUCAAUCAACUCUUUCGAGGGGGGGAAAACCCCUUUACCCUCCAUAUCAACAGCUCGCAGUCAAG” showed a binding signal (log2 fold change) of -0.474. Work on “GGUCACGUCUCAAUCAACUCUAAAGAGGGGGGGAAAACCCCUUUGCCCUCAUCCUCAACAGCUCGCAGUCAAG” yielded a binding signal (log2 fold change) of -0.0198. For “GGUCACGUCUCAAUCAACUCCUCAGAGGGGGGGAAAACCCCUUUACCCUCCAUAUCAACAGCUCGCAGUCAAG”, the binding signal (log2 fold change) was -0.095. For “GGUCACGUCUCAAUCAACUCUUUUUCCAGGGAAAACCCUGGCAAUCUCAACAGCUCGCAGUCAAG”, the binding signal (log2 fold change) was 0.0719. In the case of “GGUCACGUCUCAAUCAACUCAUUCUCCAGGGAAAUCCCUGGCUUAUUCAACAGCUCGCAGUCAAG”, the binding signal (log2 fold change) is reported as -0.0612. “GGUCACGUCUCAAUCAACUCAUUUUCAGGAGUUUACUCCUGUAUUCUCAACAGCUCGCAGUCAAG” gave a binding signal (log2 fold change) of 0.191. “GGUCACGUCUCAAUCAACUCUAUUCCCAGGGAAAGCCCUGGUUUAUUCAACAGCUCGCAGUCAAG” showed a binding signal (log2 fold change) of -0.21. With “GGUCACGUCUCAAUCAACUCUUCUCCCAGGGAAAACCCUGGUUAUGUCAACAGCUCGCAGUCAAG” the binding signal (log2 fold change) was -0.132. “GGUCACGUCUCAAUCAACUCAUUCCCCAGGGAAAACCCUGGUUAACUCAACAGCUCGCAGUCAAG” showed a binding signal (log2 fold change) of 0.0487. “GGUCACGUCUCAAUCAACUCAAUUUCAGGAGUUUACUCCUGCAAUCUCAACAGCUCGCAGUCAAG” was tested, and the binding signal (log2 fold change) was 0.189. “GGUCACGUCUCAAUCAACUCAAUCCCAGGAGUUUUCUCCUGCAAACUCAACAGCUCGCAGUCAAG” gave a binding signal (log2 fold change) of 0.0764. “GGUCACGUCUCAAUCAACUCAGUCCCAGGAGUUUGCUCCUGUAUAUUCAACAGCUCGCAGUCAAG” was tested, and the binding signal (log2 fold change) was -0.27. “GGUCACGUCUCAAUCAACUCAUCCUCCAGGGAAACCCCUGGCAUAUUCAACAGCUCGCAGUCAAG” gave a binding signal (log2 fold change) of -0.00158. In the case of “GGUCACGUCUCAAUCAACUCUAGUCCAGGAGUUUUCUCCUGUAAUCUCAACAGCUCGCAGUCAAG”, the binding signal (log2 fold change) is reported as 0.15. In the case of “GGUCACGUCUCAAUCAACUCUUCAGAGGGGGGGAAAACCCCUUUACCCUCACCUUCAACAGCUCGCAGUCAAG”, the binding signal (log2 fold change) is reported as -0.485. “GGUCACGUCUCAAUCAACUCAGUCCCAGGAGUUUUCUCCUGUAUAUUCAACAGCUCGCAGUCAAG” gave a binding signal (log2 fold change) of 0.0845. For “GGUCACGUCUCAAUCAACUCUACAGAGGGGGGGAAAACCCCUUUACCCUCAAAAUCAACAGCUCGCAGUCAAG”, the binding signal (log2 fold change) was -0.000381. Sequence “GGUCACGUCUCAAUCAACUCUAUCUCCAGGGAAAGCCCUGGUUAACUCAACAGCUCGCAGUCAAG” has a binding signal (log2 fold change) of -0.179. Sequence “GGUCACGUCUCAAUCAACUCAUCUUCAGGAGUUUCCUCCUGCAUACUCAACAGCUCGCAGUCAAG” has a binding signal (log2 fold change) of -0.00804. For “GGUCACGUCUCAAUCAACUCUAUCUCAGGAGUUUACUCCUGUUUUUUCAACAGCUCGCAGUCAAG”, the binding signal (log2 fold change) was 0.0772. For “GGUCACGUCUCAAUCAACUCAAUCCCCAGGGAAACCCCUGGCAUACUCAACAGCUCGCAGUCAAG”, the binding signal (log2 fold change) was -0.082. “GGUCACGUCUCAAUCAACUCUUCGUCAGGAGUUUUCUCCUGUUUACUCAACAGCUCGCAGUCAAG” was tested, and the binding signal (log2 fold change) was 0.0786. “GGUCACGUCUCAAUCAACUCUUUCGAGGGGGGGAAAACCCCUUUACCCUCAUCAUCAACAGCUCGCAGUCAAG” was tested, and the binding signal (log2 fold change) was 0.165. Sequence “GGUCACGUCUCAAUCAACUCUUUCCCAGGAGUUUUCUCCUGCAUUUUCAACAGCUCGCAGUCAAG” has a binding signal (log2 fold change) of -0.0132. For “GGUCACGUCUCAAUCAACUCUUCGCCCAGGGAAAGCCCUGGUUUAUUCAACAGCUCGCAGUCAAG”, the binding signal (log2 fold change) was -0.122. Work on “GGUCACGUCUCAAUCAACUCAUUCUCAGGAGUUUCCUCCUGCUUACUCAACAGCUCGCAGUCAAG” yielded a binding signal (log2 fold change) of 0.144. Work on “GGUCACGUCUCAAUCAACUCAUACGAGGGGGGGAAAACCCCUUUACCCUCUAAAUCAACAGCUCGCAGUCAAG” yielded a binding signal (log2 fold change) of 0.199. “GGUCACGUCUCAAUCAACUCAUUUUCCAGGGAAAUCCCUGGUUAUCUCAACAGCUCGCAGUCAAG” showed a binding signal (log2 fold change) of -0.0405. “GGUCACGUCUCAAUCAACUCAGUCUCCAGGGAAAUCCCUGGCUAUUUCAACAGCUCGCAGUCAAG” showed a binding signal (log2 fold change) of 0.139. “GGUCACGUCUCAAUCAACUCUAUUCCCAGGGAAAGCCCUGGCUUUCUCAACAGCUCGCAGUCAAG” gave a binding signal (log2 fold change) of -0.0194. “GGUCACGUCUCAAUCAACUCAACUUCCAGGGAAACCCCUGGUUAUUUCAACAGCUCGCAGUCAAG” gave a binding signal (log2 fold change) of -0.217. Work on “GGUCACGUCUCAAUCAACUCAACUCCCAGGGAAACCCCUGGUAUUCUCAACAGCUCGCAGUCAAG” yielded a binding signal (log2 fold change) of -0.449. Work on “GGUCACGUCUCAAUCAACUCAUCCCCCAGGGAAAUCCCUGGUUAACUCAACAGCUCGCAGUCAAG” yielded a binding signal (log2 fold change) of 0.0437. In the case of “GGUCACGUCUCAAUCAACUCUAUUUCCAGGGAAAACCCUGGUUUACUCAACAGCUCGCAGUCAAG”, the binding signal (log2 fold change) is reported as 0.256. “GGUCACGUCUCAAUCAACUCAUCCCCAGGAGUUUUCUCCUGCUAUUUCAACAGCUCGCAGUCAAG” showed a binding signal (log2 fold change) of 0.208. With “GGUCACGUCUCAAUCAACUCAUCGCCAGGAGUUUCCUCCUGUUAACUCAACAGCUCGCAGUCAAG” the binding signal (log2 fold change) was 0.101. “GGUCACGUCUCAAUCAACUCUUAAGAGGGGGGGAAAACCCCUUUGCCCUCAAAAUCAACAGCUCGCAGUCAAG” gave a binding signal (log2 fold change) of 0.118. “GGUCACGUCUCAAUCAACUCAUCCCCCAGGGAAAUCCCUGGUUUUCUCAACAGCUCGCAGUCAAG” was tested, and the binding signal (log2 fold change) was -0.202. For “GGUCACGUCUCAAUCAACUCACUAGAGGGGGGGAAAACCCCUUUACCCUCGUUUUCAACAGCUCGCAGUCAAG”, the binding signal (log2 fold change) was -0.124. With “GGUCACGUCUCAAUCAACUCUUUUCCCAGGGAAAGCCCUGGCUAUCUCAACAGCUCGCAGUCAAG” the binding signal (log2 fold change) was 0.057.
